Reference: the supplement of paper PMC10369915
The list shows a part of the results. Cut-off read from the data, not from the text of the source: active = 3.2 or more and inactive = the rest. Most of these values are background signal.

Each binder was assayed against SHP2 C-SH2 domain E139D (assay: enrichment score (SH2-bound / input frequency) (ratio); bacterial display of known human phosphotyrosine sites (pTyr-Var adds point mutants) read by sequencing; higher = stronger binding; tyrosines were phosphorylated by kinases first). Settings: peptide library: pTyr-Var.
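Note: displayed peptides selected on beads carrying the immobilized SH2 domain, with library peptides lacking any tyrosine serving as negative controls.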

Enrichment score, inactive:
REDIFYTSKLW [AKR1C2_Y81] 1.02
RGDIFYTSKLW [AKR1C3_Y81_E77G] 0.935
VECHPYFTQPK [AKR1D1_Y199] 0.726
KASRKYFAMKI [AKT3_Y173_G171R_YF] 0.599
KASGKYFAMKI [AKT3_Y173_YF] 1.92
ASGKYYAMKIL [AKT3_Y174] 1.42
ASRKFYAMKIL [AKT3_Y174_G171R_YF] 0.955
TLRETYGEMAD [ALB_Y108] 0.511
RHPYFYAPELL [ALB_Y174] 1.08
RHPFFYAPELL [ALB_Y174_YF] 2.08
ADLAKYICENQ [ALB_Y287] 0.854
DVCKNYTEAKD [ALB_Y343_A344T] 0.58
RLAKTYKTTLE [ALB_Y377_E378K] 0.521
VPHECYAKVFD [ALB_Y394_D389V] 1.03
EQLGEYKFQNA [ALB_Y425] 0.844
RELGEYALAEF [ALDH1A3_Y492_YF] 0.867
YALAEYTEVKT [ALDH1A3_Y497] 0.67
FPLAEYTEVKT [ALDH1A3_Y497_A493P_YF] 0.893
FALAEYTEVKT [ALDH1A3_Y497_YF] 1.31

What follows are binders tested against SHP2 C-SH2 domain wild-type in the same assay as above. Settings: peptide library: pTyr-Var.

Enrichment score, inactive:
REDIFYTSKLW [AKR1C2_Y81] 0.952
RGDIFYTSKLW [AKR1C3_Y81_E77G] 0.923
VECHPYFTQPK [AKR1D1_Y199] 0.703
KASRKYFAMKI [AKT3_Y173_G171R_YF] 0.844
KASGKYFAMKI [AKT3_Y173_YF] 1.42
ASGKYYAMKIL [AKT3_Y174] 1.34
ASRKFYAMKIL [AKT3_Y174_G171R_YF] 1.08
TLRETYGEMAD [ALB_Y108] 0.697
RHPYFYAPELL [ALB_Y174] 0.738
RHPFFYAPELL [ALB_Y174_YF] 1.91
ADLAKYICENQ [ALB_Y287] 1.23
DVCKNYTEAKD [ALB_Y343_A344T] 0.64
RLAKTYKTTLE [ALB_Y377_E378K] 0.508
VPHECYAKVFD [ALB_Y394_D389V] 1.26
EQLGEYKFQNA [ALB_Y425] 0.78
RELGEYALAEF [ALDH1A3_Y492_YF] 0.668
YALAEYTEVKT [ALDH1A3_Y497] 0.839
FPLAEYTEVKT [ALDH1A3_Y497_A493P_YF] 0.81
FALAEYTEVKT [ALDH1A3_Y497_YF] 1.03

The binders below were run against SHP2 N-SH2 domain L43F in the same assay as above. Settings: peptide library: pTyr-Var.

Enrichment score, inactive:
REDIFYTSKLW [AKR1C2_Y81] 0.882
RGDIFYTSKLW [AKR1C3_Y81_E77G] 0.777
VECHPYFTQPK [AKR1D1_Y199] 0.704
KASRKYFAMKI [AKT3_Y173_G171R_YF] 0.715
KASGKYFAMKI [AKT3_Y173_YF] 1.54
ASGKYYAMKIL [AKT3_Y174] 1.11
ASRKFYAMKIL [AKT3_Y174_G171R_YF] 0.923
TLRETYGEMAD [ALB_Y108] 0.781
RHPYFYAPELL [ALB_Y174] 0.907
RHPFFYAPELL [ALB_Y174_YF] 2.37
ADLAKYICENQ [ALB_Y287] 0.889
DVCKNYTEAKD [ALB_Y343_A344T] 0.617
RLAKTYKTTLE [ALB_Y377_E378K] 0.654
VPHECYAKVFD [ALB_Y394_D389V] 0.898
EQLGEYKFQNA [ALB_Y425] 0.793
RELGEYALAEF [ALDH1A3_Y492_YF] 0.801
YALAEYTEVKT [ALDH1A3_Y497] 0.749
FPLAEYTEVKT [ALDH1A3_Y497_A493P_YF] 1.01
FALAEYTEVKT [ALDH1A3_Y497_YF] 0.986

Each binder was assayed against SHP2 N-SH2 domain T42A in the same assay as above. Settings: peptide library: pTyr-Var.

Enrichment score, inactive:
REDIFYTSKLW [AKR1C2_Y81] 1.22
RGDIFYTSKLW [AKR1C3_Y81_E77G] 1.27
VECHPYFTQPK [AKR1D1_Y199] 0.727
KASRKYFAMKI [AKT3_Y173_G171R_YF] 0.682
KASGKYFAMKI [AKT3_Y173_YF] 1.57
ASGKYYAMKIL [AKT3_Y174] 1.12
ASRKFYAMKIL [AKT3_Y174_G171R_YF] 0.835
TLRETYGEMAD [ALB_Y108] 0.523
RHPYFYAPELL [ALB_Y174] 0.7
RHPFFYAPELL [ALB_Y174_YF] 2.17
ADLAKYICENQ [ALB_Y287] 0.659
DVCKNYTEAKD [ALB_Y343_A344T] 0.535
RLAKTYKTTLE [ALB_Y377_E378K] 0.445
VPHECYAKVFD [ALB_Y394_D389V] 0.922
EQLGEYKFQNA [ALB_Y425] 0.837
RELGEYALAEF [ALDH1A3_Y492_YF] 0.689
YALAEYTEVKT [ALDH1A3_Y497] 1.23
FPLAEYTEVKT [ALDH1A3_Y497_A493P_YF] 1.34
FALAEYTEVKT [ALDH1A3_Y497_YF] 2.02

The binders below were run against SHP2 N-SH2 domain T52S in the same assay as above. Settings: peptide library: pTyr-Var.

Enrichment score, inactive:
REDIFYTSKLW [AKR1C2_Y81] 0.963
RGDIFYTSKLW [AKR1C3_Y81_E77G] 0.773
VECHPYFTQPK [AKR1D1_Y199] 0.688
KASRKYFAMKI [AKT3_Y173_G171R_YF] 0.755
KASGKYFAMKI [AKT3_Y173_YF] 1.77
ASGKYYAMKIL [AKT3_Y174] 1.22
ASRKFYAMKIL [AKT3_Y174_G171R_YF] 1.03
TLRETYGEMAD [ALB_Y108] 0.665
RHPYFYAPELL [ALB_Y174] 0.935
RHPFFYAPELL [ALB_Y174_YF] 2.16
ADLAKYICENQ [ALB_Y287] 0.775
DVCKNYTEAKD [ALB_Y343_A344T] 0.747
RLAKTYKTTLE [ALB_Y377_E378K] 0.343
VPHECYAKVFD [ALB_Y394_D389V] 0.953
EQLGEYKFQNA [ALB_Y425] 0.933
RELGEYALAEF [ALDH1A3_Y492_YF] 0.641
YALAEYTEVKT [ALDH1A3_Y497] 0.801
FPLAEYTEVKT [ALDH1A3_Y497_A493P_YF] 0.891
FALAEYTEVKT [ALDH1A3_Y497_YF] 0.88

The binders below were run against SHP2 N-SH2 domain wild-type in the same assay as above. Settings: peptide library: pTyr-Var.

Enrichment score, inactive:
REDIFYTSKLW [AKR1C2_Y81] 0.861
RGDIFYTSKLW [AKR1C3_Y81_E77G] 0.806
VECHPYFTQPK [AKR1D1_Y199] 0.965
KASRKYFAMKI [AKT3_Y173_G171R_YF] 0.67
KASGKYFAMKI [AKT3_Y173_YF] 1.92
ASGKYYAMKIL [AKT3_Y174] 1.21
ASRKFYAMKIL [AKT3_Y174_G171R_YF] 0.958
TLRETYGEMAD [ALB_Y108] 0.797
RHPYFYAPELL [ALB_Y174] 1.13
RHPFFYAPELL [ALB_Y174_YF] 2.46
ADLAKYICENQ [ALB_Y287] 1.08
DVCKNYTEAKD [ALB_Y343_A344T] 0.694
RLAKTYKTTLE [ALB_Y377_E378K] 0.39
VPHECYAKVFD [ALB_Y394_D389V] 0.957
EQLGEYKFQNA [ALB_Y425] 1.17
RELGEYALAEF [ALDH1A3_Y492_YF] 0.685
YALAEYTEVKT [ALDH1A3_Y497] 0.758
FPLAEYTEVKT [ALDH1A3_Y497_A493P_YF] 1.17
FALAEYTEVKT [ALDH1A3_Y497_YF] 1.03
